Reference: publication PMC4336329 (PLoS ONE, 2015)
Out of some 310,000 compounds screened, about 2,200 (0.71%) showed an effect of 50% or more. The effect is printed as a negative number. Some of the results follow.

These molecules were tested against human ether-à-go-go-related gene (hERG) potassium channel (human, UniProt Q12809) (assay: primary screen, population patch clamp on CHO cells stably expressing hERG).
human ether-à-go-go-related gene (hERG) potassium channel, sequence (Q12809 whole entry, looked up): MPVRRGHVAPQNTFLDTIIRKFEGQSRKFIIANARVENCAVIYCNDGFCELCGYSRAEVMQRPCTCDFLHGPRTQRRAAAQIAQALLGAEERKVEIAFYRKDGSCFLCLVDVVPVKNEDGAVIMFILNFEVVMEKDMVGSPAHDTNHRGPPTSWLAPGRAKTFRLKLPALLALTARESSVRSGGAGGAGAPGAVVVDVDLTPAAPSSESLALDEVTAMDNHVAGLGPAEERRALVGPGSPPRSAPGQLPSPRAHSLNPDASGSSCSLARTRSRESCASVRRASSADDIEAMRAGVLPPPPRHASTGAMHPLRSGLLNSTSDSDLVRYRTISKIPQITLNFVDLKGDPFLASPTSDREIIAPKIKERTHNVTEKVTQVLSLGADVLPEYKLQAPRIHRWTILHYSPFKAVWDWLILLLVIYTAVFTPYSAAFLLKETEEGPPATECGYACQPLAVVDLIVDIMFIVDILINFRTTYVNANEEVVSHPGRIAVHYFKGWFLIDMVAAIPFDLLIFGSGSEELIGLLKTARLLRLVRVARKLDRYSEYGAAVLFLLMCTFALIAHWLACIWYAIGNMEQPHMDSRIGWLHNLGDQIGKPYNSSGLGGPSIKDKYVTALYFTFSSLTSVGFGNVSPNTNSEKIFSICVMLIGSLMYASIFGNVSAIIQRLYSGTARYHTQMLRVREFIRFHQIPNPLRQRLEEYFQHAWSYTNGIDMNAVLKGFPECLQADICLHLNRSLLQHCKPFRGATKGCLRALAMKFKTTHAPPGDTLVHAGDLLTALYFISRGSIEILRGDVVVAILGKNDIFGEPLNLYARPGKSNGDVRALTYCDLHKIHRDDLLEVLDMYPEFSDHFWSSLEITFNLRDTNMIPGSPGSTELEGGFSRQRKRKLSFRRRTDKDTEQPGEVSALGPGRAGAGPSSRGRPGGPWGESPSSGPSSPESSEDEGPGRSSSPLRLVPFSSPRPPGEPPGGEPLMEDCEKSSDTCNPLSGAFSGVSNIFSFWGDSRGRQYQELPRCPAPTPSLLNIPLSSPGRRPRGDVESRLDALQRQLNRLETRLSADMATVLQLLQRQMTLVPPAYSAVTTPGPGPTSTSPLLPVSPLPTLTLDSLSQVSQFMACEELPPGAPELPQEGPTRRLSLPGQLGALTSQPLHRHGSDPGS

| SMILES | hERG current change (%, negative = inhibition) at 1uM [%] |
| --- | --- |
| COC(=O)c1ccccc1NC(=O)Cn1cnc2c(cnn2-c2ccc(C)c(C)c2)c1=O | 14.7 |
| COc1ccc(CN(C)C(=O)c2ccc(NS(=O)(=O)c3ccc(F)cc3)cc2)c(OC)c1OC | -16.5 |
| COc1ccc(N2CCN(C(=O)Cn3cnc4c(cnn4-c4ccc(C)cc4)c3=O)CC2)cc1 | 9.67 |
| CC1CCc2c(sc3ncn(CCO)c(=O)c23)C1 (stereo not shown) | 14.2 |
| O=C(CSc1nnc(-c2cccnc2)s1)Nc1ccc(C(=O)O)cc1 | 13.5 |
| CCOC(=O)c1[nH]c2ccccc2c1N=CN(C)C | -2.42 |
| CCOc1ccc(N2C(=O)CC(Cc3ccc(Br)cc3)C2=O)cc1 (stereo not shown) | 12.6 |
| O=C(COC(=O)c1cc(Cl)ccc1[N+](=O)[O-])Nc1cccc2ccccc12 | 3.5 |
| COc1ccc(-c2csc(C)n2)cc1Br | 9.31 |
| CC1=C(C(N)=O)C(c2ccccc2F)NC(=O)N1 (stereo not shown) | 16 |
| COc1ccc(C2CC(c3ccc(OC)c(OC)c3)=NN2C(=O)c2ccccc2)cc1 (stereo not shown) | 12.8 |
| COc1ccc(C(CNC(=O)c2cccc(S(=O)(=O)Nc3ccc(C)cc3)c2)N2CCCCC2)cc1 (stereo not shown) | 12 |
| COc1ccc(NC(=O)c2cc(C)cc(C)c2)cc1[N+](=O)[O-] | 1.97 |
| COc1nc(C)ccc1-c1noc(-c2cccs2)n1 | 11.1 |
| CCOc1ccc(Nc2ccc([N+](=O)[O-])c3nonc23)cc1 | -3.63 |
| Cc1ccc(NC(=O)CSc2nsc(SCC(=O)Nc3ccc(C)cc3C)c2C#N)c(C)c1 | 15.9 |
| O=C(NNS(=O)(=O)c1ccc(Br)cc1)C1CCCCC1 | 13.1 |
| COc1ccc(NC(=O)CCc2nc3ccccc3s2)c(OC)c1 | 9.27 |
| O=C(NNC(=O)c1cc2ccccc2oc1=O)c1ccccc1[N+](=O)[O-] | 16 |
| Cc1ccc(C)c(S(=O)(=O)N2CCN(C(=O)Cc3c(F)cccc3Cl)CC2)c1 | 7.09 |
| O=C(/C=C/c1ccc([N+](=O)[O-])cc1)c1ccco1 | 5.32 |
| CCOC(=O)C(C)Oc1ccccc1C1NC(=O)NC(C)=C1C(=O)Nc1ccc(C)c(C)c1 (stereo not shown) | -5.36 |

| SMILES | hERG current change (%, negative = inhibition) at 1uM [%] |
| --- | --- |
| O=C(CC(=O)Nc1cc(Cl)ccc1Cl)Nc1cc(Cl)ccc1Cl | 16.5 |
| Cc1cc(F)ccc1NCc1cc2c(cc1[N+](=O)[O-])OCO2.O=C(O)C(=O)O | 10.5 |
| Cc1ccc(NC(=O)COc2ccccc2C(N)=O)cc1S(=O)(=O)N1CCCCCC1 | -0.137 |
| O=C1C2C3C=CC(CC3)C2C(=O)N1c1ccccc1[N+](=O)[O-] (stereo not shown) | 14.9 |
| CC1CC(C)CN(C(=O)c2ccc3c(c2NCCO)C(=O)c2ccccc2C3=O)C1 (stereo not shown) | 4 |
| Cc1ccc(-c2nnn(CC(=O)O)n2)cc1 | -0.39 |
| COC(=O)c1ccc(Cl)c(NC(=O)CN(c2ccccc2)S(=O)(=O)c2ccc(OC)cc2)c1 | -0.947 |
| Cc1ccc2cc(/C=N/NC(=O)[C@H]3C[C@@H]3c3ccccc3)c(Cl)nc2c1 | 10.9 |
| CCOC(=O)c1c(NC(=O)C2C3C=CC(C3)C2C(=O)O)sc2c1CC(C)(C)OC2 (stereo not shown) | 2.99 |
| CCCCc1ccc(NC(=O)C2CCCC2)cc1 | 15.3 |
| CNc1nc(N)c(C(=O)C23CC4CC(CC(C4)C2)C3)s1 | 9.89 |
| Cc1ccc(-n2nc(C)cc2NC(=O)c2ccc(C)s2)cc1 | 15.2 |
| CCOc1ccc(C(=O)CCCC(=O)c2ccc(OCC)cc2)cc1 | 8.99 |
| CCCn1cnc2scc(-c3ccc(C)cc3)c2c1=O | 11 |
| Cc1ccc(NC(=O)C(C)OC(=O)COc2cccc(C(F)(F)F)c2)cc1 (stereo not shown) | 16.7 |
| COc1cc(NC(=O)c2n[nH]c(=O)c3ccccc23)cc(OC)c1 | 10.5 |
| CCC(=O)C(CCN1CCOCC1)(c1ccccc1)c1ccccc1 | 11.6 |
| Cc1ccc(N2CN=C3SCC(=O)N3C2)cc1C | 3.3 |
| Cc1ccc2nc(-c3ccccc3N)[nH]c2c1 | 9.7 |
| COc1ccc(-c2cc(C(F)(F)F)n3nc(C(=O)N4CCN(C(=O)c5ccco5)CC4)cc3n2)cc1 | 3 |
| Cc1ccc(CSc2ccc3nnc(-c4cccnc4)n3n2)cc1 | -70.6 |
| O=C(N/N=C/c1ccccc1C(=O)O)c1ccccc1Br | 4.13 |

| SMILES | hERG current change (%, negative = inhibition) at 1uM [%] |
| --- | --- |
| Cc1ccc(S(=O)(=O)N2CCN(C(=O)CN3CCCCC3)C2C(C)C)cc1 (stereo not shown) | -12.7 |
| COc1cc(CC(=O)Nc2ccc3nc(SC)sc3c2)cc(OC)c1OC | 10.6 |
| O=C1CC(c2ccc(S(=O)(=O)NCc3ccccc3)cc2)CN1 (stereo not shown) | -2.32 |
| Nn1c(Cc2cccc3ccccc23)nnc1SCc1ccc(Cl)c(Cl)c1 | 15.7 |
| CC(C)C[C@H](NC(=O)OC(C)(C)C)C(=O)N[C@@H](CO)[C@H](O)[C@@H]1C[C@@H]1C(=O)N1CCCC1 | -7.56 |
| Cc1nccn1-c1ccc(C(F)(F)F)cc1NC=O | 8.01 |
| CCN(C(=O)CSc1nncn1-c1ccccc1)c1c(N)n(Cc2ccccc2)c(=O)[nH]c1=O | 10.7 |
| Cc1ccc(CN2C(=O)C3CCCN3c3ccc(C#N)cc32)cc1 (stereo not shown) | 8.31 |
| CSCCC(NC(=O)c1ccccc1)C(=O)N/N=C(\C)c1ccccc1 (stereo not shown) | 10.5 |
| O=C(c1ccc(F)cc1)N1CCC(O)(c2cccnc2)CC1 | 12.8 |
| CC(=O)Nc1ccc2c(c1)N(S(=O)(=O)c1cccs1)CCC2 | 10.7 |
| CCCCN1C(=O)C2(NNc3ccccc3O2)c2ccccc21 (stereo not shown) | -15.7 |
| C=CCn1c(SCC(=O)NC(=O)NC2CCCC2)nnc1C1CCCCC1 | 8.76 |
| S=c1[nH]nc(-c2cc(-c3ccco3)[nH]n2)n1-c1ccccc1Cl | 4.15 |
| CSc1ccccc1NC(=O)CSCc1ccc(C)cc1 | 8.04 |
| Cc1ccc2[nH]c(C(=O)N3CCN(c4cccc(Cl)c4)CC3)cc2c1 | 13.2 |
| Cc1ccc2c(CC(=O)Nc3ccc(N4CCN(C)CC4)cc3C)coc2c1 | -33.8 |
| Cc1ccc(CSC2=Nc3ccccc3C3=NC(=O)CN23)cc1 | 5.85 |
| C=C(C)Cc1c(C)c(C#N)c2[nH]c3ccccc3n2c1=O | 17.2 |
| CC[N+](C)(C)CC/C=C1/c2ccccc2Sc2ccc(Cl)cc21.[Br-] | 7.35 |
| CC(=O)N1c2ccccc2C(C)CC12CCCCC2 (stereo not shown) | 11.3 |
| Clc1ccc(-n2ncc3c(NCc4ccc5c(c4)OCO5)ncnc32)cc1 | 4.63 |

| SMILES | hERG current change (%, negative = inhibition) at 1uM [%] |
| --- | --- |
| O=C(Nc1ccc(S(=O)(=O)N2CCCC2)cc1)C1CC(=O)N(c2ccc(F)cc2)C1 (stereo not shown) | 12.3 |
| Nc1cc(=O)nc(SCC(=O)N2CCN(c3ccccc3)CC2)n1-c1ccc(F)cc1 | 18.4 |
| Cc1ccc(OCC(=O)N/N=C\c2ccc(-c3cccc(C(=O)O)c3)o2)c(C)c1 | 16.1 |
| C=CCOc1ccc(CN(C)Cc2nc3cc(C(F)(F)F)ccc3c(=O)[nH]2)cc1 | -2.23 |
| Cc1ccc(/C(O)=C2/C(=O)C(=O)N(CCN3CCOCC3)C2c2cccnc2)cc1 (stereo not shown) | 4.58 |
| COc1ccc([N+](=O)[O-])cc1NC(=O)CSc1nncn1-c1ccccc1 | 4.78 |
| CC1CCN(C(=O)CCc2nc3cc(S(=O)(=O)N(C)C)ccc3n2C)CC1 | 4.07 |
| Cc1nc(N2CCN(Cc3ccccc3)CC2)nc2c1CCC2 | -2.74 |
| O=C(Nc1ccc(Cl)cc1)N1CCOC12CCC1(CC2)OCCO1 | 11.2 |
| Cc1cc(C)n(CCCNC(=O)c2ccco2)n1 | 6.93 |
| CO/N=C1\CCn2c1c(C)c1ccccc12 | 13.2 |
| O=C(CN1C(=O)c2cccnc2Oc2ccc(Cl)cc21)N1CCCCCC1 | -3.81 |
| O=C(Nc1ccccc1O)c1ccc(C(=O)c2ccccc2)o1 | 10.8 |
| COc1ccccc1C(=O)Nc1ccc(C(=O)O)cc1 | 11.3 |
| O=C(Cn1nc(-c2ccc(Cl)cc2)ccc1=O)N1CCC2(CC1)OCCO2 | 1.05 |
| CS(=O)(=O)n1nc(-c2ccc(Cl)cc2)nc1N | 10.9 |
| O=C(CCc1ccccc1)Nc1cc(C(=O)O)cc(C(=O)O)c1 | 15.9 |
| COc1cc(SC)ccc1C(=O)OCC(=O)NCC(C)C | 15.3 |
| c1ccc2c(c1)OCC(c1csc3ncnc(N4CCOCC4)c13)O2 (stereo not shown) | 7.15 |
| CCCn1cnc2sc(C(N)=O)c(C)c2c1=O | 13.3 |
| CCOC(=O)CSc1nc2ccccc2c(=O)n1-c1ccc(C(=O)NCCOC)cc1 | -8.8 |
| COc1ccc(Cl)cc1NC(=O)CSc1nnc(CNC(=O)c2cccs2)o1 | 10.1 |
